PubChem BioAssay AID1461 (National Center for Advancing Translational Sciences (NCATS), 2008)
Hit rate of the full screen: of about 220,000 compounds, about 2,300 (1%) were called active. The inconclusive results got no clear call from the source; some entries with a clear call stand among them for comparison. The call rests on the fitted dose curve; in most records, active means well fitted inhibition curve with a large enough effect; inconclusive means small, poorly fitted or top-dose-only effect, or effect the other way; inactive means no such curve, though single readings can be large or run the other way. No potency is given beside an inconclusive call; the fits are too rough.

target: Neuropeptide S receptor (Homo sapiens) (UniProt Q6W5P4); experiment: qHTS Assay for Antagonists of the Neuropeptide S Receptor: cAMP Signal Transduction; details: CHO-NPSR cells, cAMP TR-FRET, antagonist mode; activity change, negative = inhibition: at 38.3 µM (top of the series) unless noted; further: nearly all actives have a fitted effect of over 50% in size
UniProt Q6W5P4, sequence (Q6W5P4 whole entry, looked up): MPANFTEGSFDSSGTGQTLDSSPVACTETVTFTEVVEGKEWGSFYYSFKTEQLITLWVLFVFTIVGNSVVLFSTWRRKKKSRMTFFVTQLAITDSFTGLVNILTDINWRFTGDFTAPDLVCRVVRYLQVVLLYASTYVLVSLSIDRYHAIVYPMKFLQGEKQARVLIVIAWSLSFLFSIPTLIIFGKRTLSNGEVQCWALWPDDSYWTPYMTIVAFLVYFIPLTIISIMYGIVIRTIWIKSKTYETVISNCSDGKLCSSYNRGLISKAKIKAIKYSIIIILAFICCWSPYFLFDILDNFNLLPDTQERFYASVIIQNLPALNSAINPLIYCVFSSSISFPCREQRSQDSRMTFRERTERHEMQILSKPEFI
On the % scale 0 is the no-effect control and ±100 the full control effect; potency means the concentration at half of the fitted maximal effect; tags describe the fitted curve by direction and shape.

SMILES | Potency | activity change, negative = inhibition
Nc1nc(N)c2cc(Sc3ccc4ccccc4c3)ccc2n1 | inconclusive [activator, single point] | –
O=C(Nc1ccc(F)cc1)C(c1ccccc1)N1CCN(S(=O)(=O)c2ccccc2)CC1 (stereo not drawn) | – | inactive: -3.56%
Cc1cccn2c(=O)c3cc(C(N)=S)c(=N)n(CCCOC(C)C)c3nc12 | inconclusive [inhibitor, single point] | –
CCOc1ccc(S(=O)(=O)Nc2cc(OC)ccc2OC)cc1 | inconclusive [activator, partial curve] | –
Cc1cc(N)n2ncc(-c3cccc(Br)c3)c2n1 | inconclusive [activator, single point] | –
Cn1c(NC(=O)c2cccc(Cn3cc(Cl)cn3)c2)nc2ccccc21 | inconclusive [activator, single point] | –
Cc1cc(NC(=O)CSc2nc(-c3ccccc3)c(C#N)c(=O)[nH]2)no1 | active: 7.94 µM | –
COC(=O)c1[nH]c2ccc(Cl)cc2c1NC(=O)Oc1ccccc1 | inconclusive [inhibitor, full curve, poor fit] | –
CCOc1ccc(-n2c(-c3ccco3)nc3c(cnn3-c3ccc(C)cc3)c2=O)cc1 | inconclusive [inhibitor, single point] | –
COC(=O)c1cc(=O)n(Cc2ccc3c(c2)OCO3)c(=Nc2ccc(F)cc2)s1 | inconclusive [inhibitor, partial curve, poor fit] | –
C[C@@H]1CC=C[C@H]2[C@H]1C(=O)N(Cc1ccccc1)[C@H]2c1ccc(F)c(Br)c1 | active: 3.98 µM | –
CCOC(=O)N1CCC(c2cc(=O)n3[nH]ccc3n2)CC1 | inconclusive [inhibitor, single point] | –
O=C(C1=C(O)C(=O)N(c2nccs2)C1c1ccccc1)c1cc2ccccc2o1 (stereo not drawn) | inconclusive [activator, partial curve] | –
COc1cc(OC)cc(-c2nnc(SCC(=O)N(Cc3ccccc3)C(C)(C)C)o2)c1 | inconclusive [inhibitor, single point] | –
O=C(Nc1cccc(C(F)(F)F)c1)c1ccc2nc(N3C(=O)CCC3=O)sc2c1 | – | inactive: -10.4% [at 46.1 µM]
O=C(NCc1ccccc1)c1ccc(-c2ccccc2C(F)(F)F)o1 | inconclusive [inhibitor, single point] | –
Cc1ccc(-n2c([S-])c(C(=O)Nc3ccc(OC(F)F)cc3)[n+]3ccc(C(=O)NCCO)cc23)cc1C | inconclusive [inhibitor, single point] | –
O=C(OCC1OC(n2ccc(=O)[nH]c2=O)C(O)C1OC(=O)c1ccccc1)c1ccccc1 (stereo not drawn) | inconclusive [inhibitor, single point] | –
COc1ccc(NC(=O)c2cc(C(C)C)on2)c(OC)c1 | – | inactive: -5.59% [at 46.1 µM]
CC(C(Sc1ccccc1N)c1ccccc1)[N+](=O)[O-] (stereo not drawn) | inconclusive [inhibitor, single point] | –
CSc1ccccc1NC(=O)COc1ccc(S(=O)(=O)N2CCCC2)cc1 | inconclusive [inhibitor, single point] | –
CCOC(=O)c1ccc(N2C(=O)C3C(C2=O)C(C(=O)c2ccc(Cl)cc2)N2CCCC32)cc1 (stereo not drawn) | inconclusive [inhibitor, single point] | –

SMILES | Potency | activity change, negative = inhibition
CSc1nnc2c3ccccc3n(Cc3ccccc3)c2n1 | inconclusive [inhibitor, single point] | –
CCO[C@@H]1OC(C(=O)N2CCN(Cc3ccccc3)CC2)=C[C@H](c2csc3ccccc23)[C@H]1CCCO | inconclusive [activator, partial curve] | –
COC(=O)C1=C(Nc2ccc(C)cc2)C=C(C)C(C(=O)OC)C1c1ccc(OC)cc1 (stereo not drawn) | inconclusive [inhibitor, single point] | –
O=C1C(=O)N(CNc2ccccn2)c2ccccc21 | inconclusive [activator, single point] | –
COc1ccc(NC(=S)N(CCCN2CCN(C)CC2)Cc2cccs2)cc1 | – | inactive: 4.59%
Cc1cc(C)c(C(=O)/C=C/c2ccc3c(c2)OCO3)c(=O)[nH]1 | – | inactive: -23.1%
COc1ccc(CNC(=S)Nc2ccc(F)c(Cl)c2)cc1OC | – | inactive: -7.63%
Nc1nc2c(s1)COc1ccccc1-2 | – | inactive: 0.364%
COc1ccccc1N(C)S(=O)(=O)c1ccc(C(=O)OCC(=O)Nc2cc(C)on2)cc1 | – | inactive: -19%
Cc1cc(C)c2c(c1)/C(=N/NC(=O)c1cc(C)oc1C)CCC2 | – | inactive: -22.9%
Clc1ccc(C2=Nn3c(nnc3-c3cc(-c4ccccc4)n[nH]3)SC2)cc1 | inconclusive [inhibitor, partial curve] | –
CCOc1ccc(/C=C2\SC(=S)N(NS(=O)(=O)c3ccccc3)C2=O)cc1OC | – | inactive: -34.1%
COCCN1C(=O)C(=O)/C(=C(/O)c2ccc(OC(C)C)cc2)C1c1cccnc1 (stereo not drawn) | inconclusive [activator, single point] | –
CCOC(=O)Nc1sc(C(=O)N(CC)CC)c(C)c1C(=O)OCC | inconclusive [inhibitor, partial curve] | –
COC(=O)c1ccc(NC2=CC(=O)CC(C)(C)C2)cc1 | – | inactive: -14.1% [at 46.1 µM]
COc1ccccc1NC(=O)c1sc2ncn(Cc3ccc(C)cc3)c(=O)c2c1C | inconclusive [activator, single point] | –
c1ccc2c3c(cc(N4CCOCC4)c2c1)OC1(N2CCOCC2)CCCCC1O3 (stereo not drawn) | inconclusive [inhibitor, partial curve, poor fit] | –
Cc1cccc(C2(c3cccc(C)c3)CC2C(=O)Nc2ccc([N+](=O)[O-])cc2O)c1 (stereo not drawn) | inconclusive [inhibitor, single point] | –
O=C(O)c1cc(NS(=O)(=O)c2ccc(N3CCOCC3)c([N+](=O)[O-])c2)cc(C(=O)O)c1 | – | inactive: -4.47% [at 46.1 µM]
O=C(NC1CCN(Cc2ccccc2)CC1)c1ccc(Oc2cc(Cl)cc(Cl)c2)o1 | inconclusive [activator, single point] | –
COc1ccc(-c2cc(C(F)(F)F)n3nc(C(=O)N(C)Cc4ccccc4)cc3n2)cc1OC | inconclusive [inhibitor, single point] | –
